IC50 is the fitted dose that halves viability relative to control wells, and lower means more sensitive; a limit (>, <) means that the fit lies beyond the doses tested. The AUC spans the tested range (256-fold, ending at the top dose) of the same fit; it is 1 without any effect and falls as sensitivity rises. For part of these data: The top dose, if marked as inferred, is not printed in the source and was worked back from the curve model. For part of these data: An entry number marks a drug with two screens in the source, which often give different values.
Columns and labels:
Experiment in all cases: Viability of human cancer cell lines after 72 h of drug (GDSC screen)
JQ1 = compound: Cc1sc2c(c1C)C(c1ccc(Cl)cc1)=N[C@@H](CC(=O)OC(C)(C)C)c1nnc(C)n1-2 [JQ1]
Experimental: (§1)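 Human cancer cell lines in 384-well plates, medium with 10% serum, drug for 72 h over a 256-fold dose range (nine 2-fold or five 4-fold steps up to the top dose). Adherent lines were fixed and stained with the nucleic acid dye Syto60, suspension lines read with resazurin; signal relative to control wells, capped at 0 and 100%. One two-parameter sigmoid per drug and line, fitted in a mixed model over all curves with the slope shared within a line.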

JNJ-26854165 = compound: c1ccc2c(CCNc3ccc(Nc4ccncc4)cc3)c[nH]c2c1 [JNJ-26854165]; details: top dose 10 µM
Experimental: as §1

OSI-906 = compound: C[C@]1(O)C[C@@H](c2nc(-c3ccc4ccc(-c5ccccc5)nc4c3)c3c(N)nccn32)C1 [OSI-906]; details: top dose 2.56 µM; top dose inferred
Experimental: as §1

SB-715992 = compound: Cc1ccc(C(=O)N(CCCN)[C@@H](c2nc3cc(Cl)ccc3c(=O)n2Cc2ccccc2)C(C)C)cc1 [SB-715992]; details: top dose 0.128 µM; top dose inferred
Experimental: as §1

Cyclopamine = compound: CC1=C2C[C@H]3[C@@H](CC=C4C[C@@H](O)CC[C@@]43C)[C@@H]2CC[C@]12O[C@@H]1C[C@H](C)CN[C@H]1[C@H]2C [Cyclopamine]; details: top dose 16 µM; top dose inferred
Experimental: as §1

YM155 = compound: COCC[n+]1c2c(n(Cc3cnccn3)c1C)C(=O)c1ccccc1C2=O [YM155]; details: top dose 5.12 µM
Experimental: as §1

JNK Inhibitor VIII = compound: CCOc1nc(NC(=O)Cc2cc(OC)ccc2OC)cc(N)c1C#N [JNK Inhibitor VIII]; details: top dose 10 µM; top dose inferred
Experimental: as §1

FTI-277 = compound: COC(=O)[C@H](CCSC)NC(=O)c1ccc(NC[C@@H](N)CS)cc1-c1ccccc1 [FTI-277]; details: top dose 1.024 µM; top dose inferred
Experimental: as §1

AMG-706 = compound: CC1(C)CNc2cc(NC(=O)c3cccnc3NCc3ccncc3)ccc21 [AMG-706]; details: top dose 2 µM; top dose inferred
Experimental: as §1

NSC-207895 = compound: CN1CCN(c2ccc([N+](=O)[O-])c3no[n+]([O-])c23)CC1 [NSC-207895]; details: top dose 20 µM; top dose inferred
Experimental: as §1

Docetaxel = compound: CC(=O)O[C@@]12CO[C@@H]1C[C@H](O)[C@@]1(C)C(=O)[C@H](O)C3=C(C)[C@@H](OC(=O)[C@H](O)[C@@H](NC(=O)OC(C)(C)C)c4ccccc4)C[C@@](O)([C@@H](OC(=O)c4ccccc4)[C@H]21)C3(C)C [Docetaxel]; details: top dose 0.0125 µM
Experimental: as §1

Belinostat = compound: O=C(/C=C/c1cccc(S(=O)(=O)Nc2ccccc2)c1)NO [Belinostat]; details: top dose 20 µM; top dose inferred
Experimental: as §1

CGP-60474 = compound: OCCCNc1cc(-c2ccnc(Nc3cccc(Cl)c3)n2)ccn1 [CGP-60474]; details: top dose 0.256 µM; top dose inferred
Experimental: as §1

[1] = top dose 1 µM, screen: GDSC drug entry 1218, top dose inferred
[2] = top dose 2.56 µM, screen: GDSC drug entry 163

Row | Cell Line | AUC (JQ1; [1]) | IC50 (JQ1; [1]) [nM] | AUC (JQ1; [2]) | IC50 (JQ1; [2]) [nM] | AUC (JNJ-26854165) | IC50 (JNJ-26854165) [nM] | AUC (OSI-906) | IC50 (OSI-906) [nM] | AUC (SB-715992) | IC50 (SB-715992) [nM] | AUC (Cyclopamine) | IC50 (Cyclopamine) [nM] | AUC (YM155) | IC50 (YM155) [nM] | AUC (JNK Inhibitor VIII) | IC50 (JNK Inhibitor VIII) [nM] | AUC (FTI-277) | IC50 (FTI-277) [nM] | AUC (AMG-706) | IC50 (AMG-706) [nM] | AUC (NSC-207895) | IC50 (NSC-207895) [nM] | AUC (Docetaxel) | IC50 (Docetaxel) [nM] | AUC (Belinostat) | IC50 (Belinostat) [nM] | AUC (CGP-60474) | IC50 (CGP-60474) [nM]
1 | TK (B-cell lymphoma, suspension) | 0.983 | > 1000 | 0.955 | > 2560 | 0.908 | > 10000 | 0.776 | 927 | 0.631 | 17.7 | 0.987 | > 16000 | 0.311 | 99.7 | 0.99 | > 10000 | 0.967 | > 1020 | 0.99 | > 2000 | 0.978 | > 20000 | 0.932 | > 12.5 | 0.266 | 289 |  | 
2 | D-542MG (glioma, adherent) | 0.978 | > 1000 | 0.687 | 604 | 0.902 | > 10000 | 0.98 | > 2560 | 0.975 | > 128 | 0.921 | > 16000 | 0.557 | 474 | 0.982 | > 10000 | 0.968 | > 1020 | 0.944 | > 2000 | 0.983 | > 20000 | 0.925 | > 12.5 | 0.399 | 618 |  | 
3 | JSC-1 (B-cell lymphoma, suspension) |  |  | 0.613 | 326 | 0.727 | 2740 | 0.987 | > 2560 | 0.837 | 84.3 |  |  | 0.025 | < 20 | 0.987 | > 10000 | 0.987 | > 1020 | 0.987 | > 2000 | 0.82 | 11400 | 0.917 | > 12.5 | 0.173 | 130 | 0.615 | 33
4 | HCC2998 (large intestine, adherent) | 0.985 | > 1000 | 0.77 | 944 | 0.976 | > 10000 | 0.752 | 826 | 0.807 | 63.2 | 0.988 | > 16000 | 0.09 | < 20 |  |  | 0.978 | > 1020 |  |  | 0.973 | > 20000 |  |  | 0.587 | 2150 |  | 
5 | ECC12 (stomach, suspension) |  |  | 0.699 | 676 |  |  |  |  |  |  | 0.974 | > 16000 |  |  |  |  | 0.956 | > 1020 |  |  |  |  |  |  |  |  |  | 
6 | UACC-812 (breast, adherent) |  |  | 0.991 | > 2560 |  |  | 0.991 | > 2560 | 0.989 | > 128 | 0.991 | > 16000 | 0.047 | < 20 |  |  | 0.99 | > 1020 |  |  | 0.918 | > 20000 |  |  | 0.562 | 1830 |  | 
7 | SK-MEL-2 (melanoma, adherent) | 0.984 | > 1000 | 0.873 | > 2560 | 0.864 |  | 0.85 | 2070 | 0.906 | > 128 |  |  | 0.288 | 78.5 | 0.928 | > 10000 | 0.986 | > 1020 | 0.965 | > 2000 | 0.984 | > 20000 | 0.697 | 2.87 | 0.626 | 2830 | 0.897 | > 256
8 | KOPN-8 (B-cell leukaemia, suspension) | 0.987 | > 1000 | 0.814 | 1150 |  |  | 0.944 | > 2560 | 0.628 | 17 |  |  | 0.017 | < 20 | 0.99 | > 10000 | 0.99 | > 1020 | 0.981 | > 2000 | 0.902 | 19600 | 0.795 | 4.9 | 0.135 | 114 | 0.702 | 53.6
9 | HOP-62 (lung adenocarcinoma, adherent) | 0.985 | > 1000 | 0.475 | 137 | 0.858 | 8210 | 0.956 | > 2560 | 0.766 | 47 |  |  | 0.055 | < 20 | 0.971 | > 10000 | 0.895 | > 1020 | 0.981 | > 2000 | 0.944 | > 20000 |  |  | 0.376 | 571 | 0.623 | 34.9
10 | K-562 (chronic myeloid leukaemia, suspension) |  |  |  |  |  |  |  |  |  |  |  |  | 0.037 | < 20 |  |  | 0.988 | > 1020 |  |  | 0.9 | > 20000 |  |  |  |  | 0.855 | 194
11 | KLE (endometrium, adherent) | 0.97 | > 1000 | 0.608 | 372 | 0.882 | > 10000 | 0.964 | > 2560 | 0.926 | > 128 |  |  | 0.054 | < 20 | 0.965 | > 10000 | 0.962 | > 1020 | 0.97 | > 2000 | 0.694 | 5990 | 0.854 | > 12.5 | 0.535 | 1640 | 0.671 | 62.6
12 | SK-N-AS (neuroblastoma, adherent) | 0.982 | > 1000 | 0.896 | > 2560 | 0.917 | > 10000 | 0.978 | > 2560 | 0.804 | 76.2 |  |  | 0.283 | 70.1 | 0.974 | > 10000 | 0.981 | > 1020 | 0.963 | > 2000 | 0.943 | > 20000 | 0.867 | > 12.5 | 0.263 | 234 |  | 
